From PubChem BioAssay AID463173 (ICCB-Longwood Screening Facility, Harvard Medical School, 2010) come the findings set out here.

The campaign covered roughly 52,000 compounds. About 4,300 (8.3%) were called active. Cut-off read from the data, not from the text of the source: active = survival mostly below about 52% (no sharp cut-off); inactive = mostly above about 56%. This is one part of the list.

This experiment relates to DeltatarO mutant. Description: growth inhibition of S. aureus wild type versus tarO mutant, primary screen, teichoic acid synthesis inhibitors, RN4220, OD600 (AID 463173). The conditions noted are these: OD600, 18 h, stronger effect = lower value, screened at 18.75 µg/mL (by protocol).
As for `COc1ccc(NC(=O)Cn2ncc3c4ccccc4n(Cc4ccccc4)c3c2=O)cc1OC`, the survival was inactive: 87%.

Take `COc1cc(NS(=O)(=O)c2ccc3c(c2)OCC(C(=O)N2CCCC2)O3)cc(OC)c1` (stereo not given): the survival was inactive: 78%.

Turning to `COc1ccccc1-c1ncnn1-c1sc2c(c1C#N)CCCCC2`, the survival was active: -2%.

As for `Cc1ccc(NC(=O)Cn2nc(-c3ccc(Cl)cc3)c3ccccc3c2=O)cc1`, the survival is active: 38%.

With `CCN(CC)c1ccc(NC(=O)C2CCCN(S(=O)(=O)c3ccc4c(c3)oc(=O)n4C)C2)c(C)c1` (stereo not given), the survival was inactive: 113%.

Regarding `Nc1ccccc1-n1ccnc1`, the survival is inactive: 71%.

As for `COc1ccccc1CSc1nc2n(n1)C(c1ccccc1)C(C(=O)Nc1ccc(C)cc1)=C(C)N2` (stereo not given), the survival was inactive: 65%.

On to `CCOC(=O)c1c(S(=O)(=O)N2CCN(c3cc(Cl)ccc3C)CC2)c(C)n(C)c1C`, for which the survival was inactive: 123%.

Regarding `Cc1ccc(NC(=O)C2CCCN(S(=O)(=O)c3ccc(C)cc3)C2)cc1` (stereo not given), the survival was inactive: 71%.

`CCOc1ccc(N(CC)C(=O)c2cc3c(=O)oc4ccccc4c3s2)cc1`: the survival is active: 38%.

With `CCOc1ccc(CN2CCN(S(=O)(=O)c3ccc(Cl)cc3)CC2)cc1`, the survival was active: 27%.

Turning to `O=C(NC1CCN(C(=O)NCc2ccccc2)CC1)c1ccco1`, the survival was inactive: 84%.

Take `O=c1oc2c(F)cc(F)cc2cc1S(=O)(=O)c1ccc(F)cc1`: the survival was inactive: 60%.

With `Cc1ccc(Cc2nc3ccccc3nc2SCC(=O)N2CCCCC2)cc1`, the survival is inactive: 78%.

Consider `Cc1nc(C)c(CCNS(=O)(=O)c2ccc(C)c(C)c2)s1`, for which the survival is inactive: 97%.

Take `CCOc1ccccc1NC(=O)c1c(NCc2ccc(C)o2)sc2c1CCCCC2`: the survival is inactive: 95%.

Turning to `CC(C)C(=O)CC(c1ccccc1)C1C(=O)NC(=O)NC1=O` (stereo not given), the survival was inactive: 71%.

Regarding `COC(=O)c1ccccc1NC(=O)CCCn1nc(C)c2sc3ccccc3c2c1=O`, the survival is inactive: 81%.

Turning to `COc1cccc(NC(=O)c2oc3ccccc3c2NC(=O)COc2ccccc2C)c1`, the survival is inactive: 122%.

As for `CC1=C(C(=O)Nc2ccc(C)cc2C)C(CC(C)C)n2nc(SCc3ccccc3C)nc2N1` (stereo not given), the survival is inactive: 93%.

Take `Cc1oc(-c2ccccc2F)nc1CN1CCC(C(=O)NCCc2ccc(Cl)cc2)CC1`: the survival is inactive: 71%.

As to `O=C(Cn1cc(S(=O)(=O)c2ccc(F)cc2)c(=O)c2cc3c(cc21)OCO3)Nc1ccccc1`, the survival was inactive: 68%.

As to `Cc1ccn2c(=O)c(C(=O)Nc3ccc(F)c(C(F)(F)F)c3)cnc2c1`, the survival is inactive: 94%.

Consider `N#CCC(=O)Nc1nccs1`, for which the survival is inactive: 89%.

Regarding `Cc1cccc(NC(=O)C(=O)NCC(c2cccnc2)N2CCc3ccccc32)c1C` (stereo not given), the survival is inactive: 53%.

Regarding `CCOC(=O)c1cc(-c2ccccc2)n(CCC(=O)Nc2ccc(OC)c(Cl)c2)c1C`, the survival was inactive: 92%.

Regarding `O=C(O)C12CC3CC(CC(S)(C3)C1)C2`, the survival was inactive: 59%.

With `Cc1ccccc1-c1nc2c(c(SCc3cccc(Cl)c3)n1)Cc1c(CO)cnc(C)c1O2`, the survival is inactive: 60%.

As to `Cc1cc(NC(=O)CN(C)S(=O)(=O)c2ccc3c(c2)CCCC(=O)N3)ccc1Br`, the survival is inactive: 81%.

For `CCc1ccc(NC(=O)Cn2c(=O)n(CCCC(=O)NCc3ccccc3OC)c(=O)c3ccccc32)cc1`, the survival was inactive: 135%.

Take `COc1cc(-c2nc(Cn3nnc(C(=O)Nc4ccccc4C)c3C)c(C)o2)cc(OC)c1OC`: the survival was inactive: 58%.

Turning to `O=c1c2sc3ccccc3c2n(Cc2ccc(F)cc2)c(=O)n1Cc1ccccc1`, the survival was inactive: 137%.

As for `CCc1cccc(CC)c1NC(=O)CCS(=O)(=O)c1ccc(Br)cc1`, the survival is inactive: 117%.

`CCOc1ccc(-c2cc(C(=O)NCc3ccc(OCC)c(OC)c3)[nH]n2)cc1`: the survival was inactive: 85%.

As to `Cc1cc(C)n2nc(SCC(=O)Nc3ccc(O)cc3)nc2n1`, the survival was inactive: 67%.

Consider `Cc1ccc(NC(=O)CSc2ncccc2C(=O)Oc2ccccc2Cl)cc1Cl`, for which the survival is inactive: 94%.

Turning to `COc1ccc2[nH]cc(CCNC(=O)Nc3c(C)cccc3C)c2c1`, the survival was inactive: 99%.

Take `N=c1c2c3c(sc2ncn1CCCn1ccnc1)CCCCC3`: the survival was inactive: 116%.

As to `CCCCC(=O)Nc1cc(-c2nc3ccccc3o2)ccc1OC`, the survival is active: 7%.

Regarding `CCOc1ccc(CC(=O)NCCS(=O)(=O)N2CCN(c3ccccc3OC)CC2)cc1`, the survival was inactive: 84%.

As for `CCOC(=O)c1noc2ncn(CC(=O)Nc3ccc(OC)c(Cl)c3)c(=O)c12`, the survival is inactive: 77%.

Regarding `COc1ccc(C)cc1NC(=O)c1ccc2c(c1)N(Cc1cccc(Cl)c1)C(=O)c1ccccc1S2=O` (stereo not given), the survival was inactive: 92%.

As for `Cc1ccc(C)c(NC(=O)c2ccc(=O)n(Cc3ccc(F)cc3)c2)c1`, the survival was inactive: 94%.

Turning to `Clc1cccc(N2CCN(c3nc4ccccc4c4nc(-c5cccnc5)nn34)CC2)c1`, the survival was inactive: 82%.

For `CC1Oc2ccccc2N(CC(=O)NC2CC2)C1=O` (stereo not given), the survival was inactive: 75%.

For `Cc1ccc(-c2nn(-c3cccc([N+](=O)[O-])c3)c3c2cnc2ccc(F)cc23)cc1`, the survival is inactive: 75%.

For the compound `Cc1cccc(Nc2nc(Nc3cccc(C)c3)nc(N3CCOCC3)n2)c1`, the survival is active: 1%.

With `Cc1cc2c(n1-c1ccc(C(=O)NCC(C)c3ccccc3)cc1)CCCC2` (stereo not given), the survival is inactive: 84%.

Take `Cc1sc(C2C(C#N)=C(N)N(c3cccc(Cl)c3)C3=C2C(=O)CCC3)cc1CN1CCOCC1` (stereo not given): the survival is inactive: 85%.

Consider `Cc1ccc(CNC(=O)c2cc(S(=O)(=O)N3CCCC(C)C3)cn2C)cc1` (stereo not given), for which the survival was inactive: 94%.

With `O=S(=O)(NCc1ccc(F)cc1)c1ccc2[nH]c3c(c2c1)CCCCC3`, the survival was inactive: 61%.

With `CC(C)CCNC(=O)c1ccc(Cn2c(=O)c3cccn3c3cccnc32)cc1`, the survival is inactive: 64%.

For the compound `C#CCSc1nc2sc3c(c2c(=O)n1-c1cccc(OC)c1)CCN(C(C)=O)C3`, the survival was inactive: 28%.

Regarding `Cc1ccc(S(=O)(=O)Nc2ccc(-c3ccc(N4CCCCCC4)nn3)cc2)cc1C`, the survival is inactive: 119%.

Take `C=CCNC(=O)c1c(O)c2cccc3c2n(c1=O)CCC3`: the survival was inactive: 102%.

For `CCOC(=O)c1ccc(-c2ccc(/C=C(\C#N)C(=O)Nc3c(C)cccc3Cl)o2)cc1`, the survival was inactive: 61%.

In the case of `COc1cc(Cl)c(NC(=O)c2cc(S(=O)(=O)N3CCOCC3)cn2C)c(OC)c1`, the survival is inactive: 76%.

`CCOC(=O)C(C)ON1C(=O)c2ccccc2C1=O` (stereo not given): the survival is inactive: 86%.

As for `CC(C(=O)O)N1C(=O)NC2NC(=O)NC21` (stereo not given), the survival was active: 54%.

As to `CCc1nn2c(-c3ccco3)ccnc2c1-c1ccc(F)cc1`, the survival is inactive: 81%.

Consider `COc1ccc(-c2n[nH]c3c2C(c2ccc(Cl)cc2Cl)NC3=O)cc1` (stereo not given), for which the survival is active: -12%.

Regarding `COc1ccc(-n2c(=O)c3c(c4cc(OC)ccc4n3C)n(CC(=O)NCC3CCCO3)c2=O)cc1` (stereo not given), the survival is inactive: 62%.

For `CCN(CCCNC(=O)c1ccc(Sc2ccc(C)cc2)c(NC(C)=O)c1)c1cccc(C)c1`, the survival is inactive: 80%.

In the case of `CCOc1cccc(C(=O)Nc2ccc3oc(-c4ccc(C(C)(C)C)cc4)nc3c2)c1`, the survival is active: 46%.

Take `COc1ccc(NC(=O)Cn2c(=O)n(-c3cccc(C)c3)c(=O)c3c2c2cc(C)ccc2n3C)cc1OC`: the survival is inactive: 79%.

For `Cc1ccc2oc(-c3ccc(C)c(NC(=O)c4ccc5c(c4)OCCO5)c3)nc2c1`, the survival was inactive: 48%.

Regarding `CC(CCO)Nc1nc2c(c(=O)n(C)c(=O)n2C)n1Cc1ccc(Br)cc1` (stereo not given), the survival was inactive: 140%.

In the case of `Cc1ccc(F)cc1NC(=O)CCc1c(C)nn(-c2ccc(N3CCCCC3)nn2)c1C`, the survival is inactive: 69%.

Regarding `Cc1ccc(S(=O)(=O)c2nnn(CC(=O)Nc3ccccc3C)c2N)cc1C`, the survival is inactive: 91%.

As to `CCC(=O)Nc1ccc2nc(SCCOc3cccc(C)c3)sc2c1`, the survival was inactive: 104%.

On to `CC(C)(C)NC(=O)Cn1cc(S(=O)(=O)Cc2ccc(F)cc2)c2ccccc21`, for which the survival is inactive: 67%.

Regarding `COCCn1c(SCC(=O)c2ccc(OC)cc2)nc2cc(C(=O)NC3CCCC3)ccc2c1=O`, the survival was inactive: 94%.

Take `CCCOc1ccc(-c2nonc2NC(=O)COc2ccc(C)cc2)cc1OCCC`: the survival is inactive: 112%.

`CCOC(=O)CNC(c1ccccc1)c1cc(Br)ccc1NC(=O)c1ccc(Cl)cc1` (stereo not given): the survival was inactive: 71%.

Consider `CC(=O)c1c(C)oc2c(Cl)cc(NS(=O)(=O)c3cc(C)c(C)cc3C)cc12`, for which the survival is inactive: 157%.

For `COC(=O)c1cc2oc(C)cc2n1Cc1cccc(Cl)c1`, the survival was active: -8%.

Take `Cc1ccc(-n2c(=O)c3c(c4cc(C)ccc4n3C)n(CC(=O)NCCC3=CCCCC3)c2=O)cc1`: the survival is inactive: 55%.

As for `O=c1c2oc3ccccc3c2n(Cc2cccc(Cl)c2)c(=O)n1Cc1ccc2c(c1)OCO2`, the survival is inactive: 88%.

For the compound `COc1ccccc1OCC(=O)NCC1(N2CCOCC2)CCCCC1`, the survival was inactive: 90%.

As to `FC(F)(F)c1nnc2c3ccccc3nc(-c3ccccc3)n12`, the survival was active: 29%.

With `O=C(NCc1cccc(Cl)c1)c1ccc(CS(=O)Cc2ccccc2Cl)o1` (stereo not given), the survival is inactive: 63%.

On to `CCCCSCc1ccc(C(=O)O)o1`, for which the survival is inactive: 77%.

On to `O=C(CCC1N=C2c3ccccc3N=C(SCc3ccccc3Cl)N2C1=O)NCc1cccs1` (stereo not given), for which the survival was inactive: 79%.

`CCOc1ccc(OCC)c(NC(=O)c2cnc3c(-c4ccccc4)c(C)nn3c2C)c1`: the survival was inactive: 91%.

For the compound `CC(C)Cc1ccc(S(=O)(=O)Nc2ccc3[nH]c(=O)[nH]c3c2)cc1`, the survival was inactive: 87%.

For `Nc1nc(NC(=S)Nc2ccccc2)cc(=O)[nH]1`, the survival is inactive: 62%.

On to `COc1ccccc1CNC(=O)Cn1c(=O)ccc2cc(S(=O)(=O)N3CCC(C)CC3)ccc21`, for which the survival is inactive: 83%.

As to `O=S(=O)(c1ccc(Cl)cc1)c1nc(-c2ccccc2Br)oc1N1CCOCC1`, the survival was inactive: 59%.

Regarding `COC(=O)c1c(C)oc2c1cc(NS(=O)(=O)c1c(C)cc(C)cc1C)c1ccccc12`, the survival was inactive: 71%.

As to `O=c1[nH]c2ccccc2c(O)c1C1=NS(=O)(=O)c2ccccc2N1`, the survival was inactive: 75%.
